Reference: patent US12458818B2, “Anti-trophoblast cell surface antigen 2 (TROP2) antibodies and antibody drug conjugates comprising same” (CSPC MEGALITH BIOPHARMACEUTICAL CO., LTD., priority 2019, dated 2025)
Residue numbers refer to the chain shown, from its start.

Tests used:
[1] = tested on: xenografted MDA-MB-468 human breast adenocarcinoma tumors; assay: MDA-MB-468 xenograft efficacy in female nude mice (Example 4); format: in vivo, mouse; conditions: 4 mg/kg IV once on Day 0
Description: The anti-tumor activity of DP002-HC4LC5-ADC was evaluated as a single agent in female nude mice bearing xenografted MDA-MB-468 human breast adenocarcinoma tumors.
(§1) Each mouse was inoculated with 5×10^6 MDA-MB-468 tumor cells (in 0.1 mL, 1:1 with Matrigel) at the right flank by subcutaneous administration under sterile conditions. When the tumors reached a volume of ˜150 mm^3, mice were randomized into one of 7 treatment groups (6 mice per group), as outlined in Table 12, and treatments began. All doses of DP002-HC4LC5-ADC were administered by intravenous injection via tail vein injection.
(§2) Tumor size and animal body weight were measured twice per week. Clinical signs were recorded daily. Tumors were measured using a caliper in two dimensions (i.e., length (a) and width (b)), and tumor volumes were estimated from measurements of the two diameters of the individual tumors as follows: Tumor Volume (mm^3)=(a×b^2)/2.
(§3) Average tumor growth curves for each treatment group were plotted with the observation time on the X-axis, and corresponding tumor volume (geometric mean) on the Y-axis. A two-tailed t-test was used to analyze the statistical significance of any differences between the treatment groups and the control group. Tumor Growth Inhibition (TGI) was calculated after each tumor volume measurement according to the formula: % TGI=(TVcn−TVtn)/TVcn×100, where TVtn and TVcn are the mean tumor Volume of treated and control groups, respectively. Body weight change (CBW %) was calculated after each body weight measurement according to the formula: CBW %=(BWn−BW0)/BW0×100, where BWn is the body weight at day n and BW0 is the body weight at day 0 respectively.

NCI-N87 = assay: In vitro cytotoxicity assay, NCI-N87; format: cell-based; conditions: NCI-N87 human gastric carcinoma cell line
Description: (§4) DP002-HC1LC1-ADC is an antibody-drug conjugate comprising anti-TROP antibody DP002-HC1LC1, which comprises HCl (SEQ ID NO: 52) and LC 1 (SEQ ID NO: 58), conjugated to monomethyl auristatin E (MMAE) at a drug-antibody ratio (DAR) of 2. A DP002-HC1LC1-ADC was prepared using a conjugation method described in WO 2015/191883. A series of in vitro cytotoxicity assays were performed to assess the ability of DP002-HC1LC1-ADC to inhibit the growth of the following TROP2 expressing cancer cell lines: HCC1954 (a human breast carcinoma cell line), BxPC-3 (a human pancreatic adenocarcinoma cell line), and NCI-N87 (a human gastric carcinoma cell line). Experiments using staurospirone, a positive apoptosis control, and anti-TROP2 antibody DP002-HC4LC5, which comprises HC4 (SEQ ID NO: 55) and LC5 (SEQ ID NO: 62), were performed in parallel.

HCC1954 = assay: In vitro cytotoxicity assay, HCC1954; format: cell-based; conditions: HCC1954 human breast carcinoma cell line
Description: as §4

[2] = tested on: human MDA-MB-468 breast adenocarcinoma tumor xenografts; assay: MDA-MB-468 xenograft efficacy in NOD/SCID mice (Example 3); format: in vivo, mouse; conditions: single dose on Day 0; for T/C (%) / TGI (%): Day 42
Description: (§5) The efficacies of two anti-TROP2-MMAE antibody drug conjugates, DP002-HC1LC5-ADC (DAR ˜2) and DP002-HC4LC5-ADC (DAR ˜1.6-2.3), in inhibiting tumor growth in mice bearing human MDA-MB-468 breast adenocarcinoma tumor xenografts were tested. DP002-HC1LC5-ADC comprises an anti-TROP antibody that comprises HC 1 (SEQ ID NO: 52) and LC5 (SEQ ID NO: 62); DP002-HC4LC5-ADC comprises an anti-TROP antibody that comprises HC 4 (SEQ ID NO: 44) and LC5 (SEQ ID NO: 62). Briefly, 48 NOD/SCID mice (female, 6-8 weeks of age) were implanted with 0.1 ml MDA-MB-468 cells (lx 10^7 cell/ml). When the tumors sizes reached above 181 mm^3 (34 days after tumor inoculation), the mice were sorted randomly into 7 groups (6 mice/group) and treated according to the schedule provided in Table 10 below: […]

human TROP2 [3] = biological target: T1, human TROP2 (Homo sapiens, UniProt P09758); assay: Surface plasmon resonance kinetics and affinities (Table 8B); format: binding; conditions: SPR, analyte TROP2
T1 sequence (P09758 27-323): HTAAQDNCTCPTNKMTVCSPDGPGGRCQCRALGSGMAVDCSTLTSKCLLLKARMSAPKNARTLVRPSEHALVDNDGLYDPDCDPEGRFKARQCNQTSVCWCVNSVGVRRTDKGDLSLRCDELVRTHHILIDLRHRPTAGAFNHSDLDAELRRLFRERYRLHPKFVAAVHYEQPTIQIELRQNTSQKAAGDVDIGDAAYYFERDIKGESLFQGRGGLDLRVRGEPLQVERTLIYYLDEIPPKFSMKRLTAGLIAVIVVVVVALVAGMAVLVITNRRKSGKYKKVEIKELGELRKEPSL
Description: Surface plasmon resonance (SPR) experiments were performed to determine the kinetics and affinities of certain antibodies shown in Table 8A.

BxPC-3 = assay: In vitro cytotoxicity assay, BxPC-3; format: cell-based; conditions: BxPC-3 human pancreatic adenocarcinoma cell line
Description: as §4

human TROP2 [4] = biological target: T1, human TROP2; assay: SPR affinity ranking of humanized antibodies (Table 8C); format: binding
[5] = Body weight and tolerability in xenografted nude mice (Example 4); format: in vivo, mouse; conditions: 4 mg/kg IV once on Day 0
Description: as §1, §2, §3

[6] = Side effects in xenografted NOD/SCID mice (Example 3); format: in vivo, mouse; conditions: 1 mg/kg or 4 mg/kg intravenous, single dose on Day 0
Description: as §5

HCC38 = assay: In vitro cytotoxicity assay, HCC38; format: cell-based; conditions: HCC38 TROP2+ human mammary ductal carcinoma cell line
Description: (§6) Additional in vitro cytotoxicity assays were performed to test the ability of DP002-HC1LC1-ADC to inhibit the growth of MDA-MB-468 (a TROP2^+ human breast adenocarcinoma cell line) and HCC38 (a TROP2^+ human mammary ductal carcinoma cell line).

MDA-MB-468 = assay: In vitro cytotoxicity assay, MDA-MB-468; format: cell-based; conditions: MDA-MB-468 TROP2+ human breast adenocarcinoma cell line
Description: as §6

B1: HC4/LC5 (antibody)
heavy: QVQLVQSGAEVKKPGSSVKVSCKASGYTFTDYSINWVRQAPGQGLEWMGVISTYYGDASYNQKFKGRVTITADESTSTAYMELSSLRSEDTAVYYCARYGDGYNQFDYWGQGTLVTVSS[human IgG1 constant region cut from this listing]
light: DIQMTQSPSSLSASVGDRVTITCRVSESVDSYGNNFMHWYQQKPGKAPKLLIYRASNLESGVPSRFSGSGSGTDFTFTISSLQPEDIATYYCQQSYEDPYTFGGGTKLEIKRTVAAPSVFIFPPSDEQLKSGTASVVCLLNNFYPREAKVQWKVDNALQSGNSQESVTEQDSKDSTYSLSSTLTLSKADYEKHKVYACEVTHQGLSSPVTKSFNRGEC
- % TGI Day 70 [1]: 8.32%
- Tumor Volume (mm^3, Mean ± SEM) Day 70 [1]: 1249.79 ± 70.34 mm^3
- Tumor Weight (g, Mean ± SEM) Day 84 [1]: 1.710 ± 0.058 g
- tumor inhibition effect [1]: did not possess significant tumor inhibition effects
- Tumor Weight (g, Mean ± SEM) Day 70 ([1]; animals euthanized Day 70): 1.032 ± 0.073 g
- Number of mice demonstrating full tumor regression at Week 4 following first dose ([1]; n = 6 unless specified): 0
- Number of mice demonstrating full tumor regression at Week 5 following first dose ([1]; n = 6 unless specified): 0
- Number of mice demonstrating full tumor regression at Week 6 following first dose ([1]; n = 6 unless specified): 0
- Number of mice demonstrating full tumor regression at Week 7 following first dose ([1]; n = 6 unless specified): 0
- Number of mice demonstrating full tumor regression at Week 8 following first dose ([1]; n = 6 unless specified): 0
- Number of mice demonstrating full tumor regression at Week 9 following first dose ([1]; n = 6 unless specified): 0
- Number of mice demonstrating full tumor regression at Week 10 following first dose ([1]; n = 6 unless specified): 0
- Number of mice demonstrating full tumor regression at Week 11 following first dose ([1]; n = 6 unless specified): 0 (n = 2)
- Number of mice demonstrating full tumor regression at Week 12 following first dose ([1]; n = 6 unless specified): 0 (n = 2)
- Max % inhibition (NCI-N87): little to no activity
- Max % inhibition (NCI-N87; listed as DP002HC4LC5): 7.07%
- Max % inhibition (HCC1954): little to no activity
- Max % inhibition (HCC1954; listed as DP002HC4LC5): 2.28%
- Tumor Size (mm^3) at Day 42, mean ± SEM ([2]; 4 mg/kg intravenous): 742 ± 74 mm^3
- T/C (%) ([2]; 4 mg/kg intravenous): 102%
- TGI (%) ([2]; 4 mg/kg intravenous, listed as DP002-HC4LC5, 4 mg/kg): −2%
- TGI (%) ([2]; 4 mg/kg intravenous, listed as antibody control, 4 mg/kg): did not have any effect on tumor growth
- Rmax (human TROP2 [3]): 50.7
- ka (human TROP2 [3]): 2.2e+06 M⁻¹ s⁻¹
- kd (human TROP2 [3]): 4.05e-05 s⁻¹
- Max % inhibition (BxPC-3): little to no activity
- Max % inhibition (BxPC-3; listed as DP002HC4LC5): 2.95%
- Ka (human TROP2 [4]): 1.72e+06 M⁻¹ s⁻¹
- Kd (1/s) (human TROP2 [4]): 0.000138 s⁻¹
- Rmax (RU) (human TROP2 [4]): 49.9 RU
- Body Weight (g, Mean ± SEM) Day 70 [5]: 21.03 ± 0.58 g
- Body Weight (g, Mean ± SEM) Day 84 [5]: 22.90 ± 0.70 g
- Drug-related Death [5]: 0
- average body weight increase (%) on Day 84 compared to Day 0 [5]: 17.79%
- average body weight increase on Day 70 compared to Day 0 [5]: 1.78 g
- average body weight increase on Day 84 compared to Day 0 [5]: 3.65 g
- BWC (%) Day 70 (body weight change vs Day 0) ([5]; listed as DP002-HC4LC5): 9.31%

B2: DP002-HC1LC5-ADC: anti-TROP2-MMAE antibody drug conjugate (DAR ~2) of antibody with HC1 (SEQ ID NO: 52) and LC5 (SEQ ID NO: 62) (conjugate)
heavy: B1 heavy with S16A, I70M, A72T, E74T, S84R, E89D, L114M
light: B1 light
modifications: MMAE conjugate, DAR ~2
- side effects based on changes in body weight, survival and gross observations [6]: No obvious side effects
- Tumor Size (mm^3) at Day 42, mean ± SEM ([2]; 1 mg/kg intravenous): 583 ± 49 mm^3
- Tumor Size (mm^3) at Day 42, mean ± SEM ([2]; 4 mg/kg intravenous): 0 ± 0 mm^3
- average tumor volume on Day 56 ([2]; 4 mg/kg intravenous): 0 mm^3
- T/C (%) ([2]; 1 mg/kg intravenous): 77%
- TGI (%) ([2]; 1 mg/kg intravenous): 23%
- T/C (%) ([2]; 4 mg/kg intravenous): 0%

B3: DP002-HC1LC1-ADC (conjugate)
heavy: B1 heavy with S16A, I70M, A72T, E74T, S84R, E89D, L114M
light: DIVMTQSPDSLAVSLGERATINCRVSESVDSYGNNFMHWYQQKPGQPPKLLIYRASNLESGVPDRFSGSGSGTDFTLTISSLQAEDVAVYYCQQSYEDPYTFGQGTKLEIKRTVAAPSVFIFPPSDEQLKSGTASVVCLLNNFYPREAKVQWKVDNALQSGNSQESVTEQDSKDSTYSLSSTLTLSKADYEKHKVYACEVTHQGLSSPVTKSFNRGEC
modifications: conjugated to monomethyl auristatin
- Max % inhibition (HCC38): 22.56%

B4: HC1/LC1 (antibody)
heavy: B1 heavy with S16A, I70M, A72T, E74T, S84R, E89D, L114M
light: B3 light
- Max % inhibition (MDA-MB-468): 14.57%
- Rmax (human TROP2 [3]): 52.4
- ka (human TROP2 [3]): 1.97e+06 M⁻¹ s⁻¹
- kd (human TROP2 [3]): 0.00013 s⁻¹
- Ka (human TROP2 [4]): 1.63e+06 M⁻¹ s⁻¹
- Kd (1/s) (human TROP2 [4]): 0.000105 s⁻¹
- Rmax (RU) (human TROP2 [4]): 48.4 RU
- Max % inhibition (HCC38): 10.87%
